Sequences and labels used below:
B1: chr6:67234108:67234109:+_ENSMUSG00000036371_ENSMUST00000042990|mus_hu|FALSE|FALSE (ssRNA)
RNA: GGGAGUUCUACAGUCCGACGAUCGCUACCAAUACAUUUCUAAAUACAAAACUGACUACCAUAUUUGUUACUUCUGUGUAGCGGGAGAAGUUCAUUUUUAAAACAGAUAAAAUUCAGUCUUUAGGUGUGAAUGGUAUGAAUGACCAACAGAGGAUUGAGCAUCA
B2: chr3:45751083:45751084:+_ENSG00000211456_ENST00000389061|hu_hu|motif|central (ssRNA)
RNA: GGGAGUUCUACAGUCCGACGAUCCCAUACAAACCGCUGAUCUGCCCUUUCCAAGAGACUCAUUUCUUGGAAUUCAGGACGGGUGUUGGAUAGCCGCUGCAAAGUAUGGGUCAAAUCAUAUGUUGUUGAAAAGUAAAAUCCAUCCAACAGAGGAUUGAGCAUCA
B3: chr2:120444880:120444881:+_ENSMUSG00000027285_ENSMUST00000124187|mus_hu|FALSE|FALSE (ssRNA)
RNA: GGGAGUUCUACAGUCCGACGAUCCUACUUGGCAUUAAUAGUUUGGACAUGAACUUUAGAAGUAAAAGGUAAAGGAGGCAUUAUAAUAUCAUGUUUAUAAAGAUAACUUUCUUCAGCUAAUAUUUUGGGGAUACAAGACGAAACCAACAGAGGAUUGAGCAUCA
B4: chr12:48362563:48362564:+_ENSG00000134291_ENST00000256686|hu_hu|hu_hu_hu_mus_False|18_18 (ssRNA)
RNA: GGGAGUUCUACAGUCCGACGAUCUCCGUCAAGCCCUUCGAUAGACCCUUGCGGGGGAAACUGUAAUCACUUUGUAUGGGGAAGGAAAAGAAACGCCAAAAACUUUCCAAAAAGCGGUUCAAAAAGCAGGCGGGAGGGGGAGGUCAACAGAGGAUUGAGCAUCA
B5: 16580588_16583870_601_3pUTR_ENSMUSG00000020593_ENSMUST00000067124|mouse|control|control (ssRNA)
RNA: GGGAGUUCUACAGUCCGACGAUCGUUCUGCUUCCAUCCAUCGGUGCUGUGUCCUCAUCCGAGCUCAUCUCUAUGGGAAACAUGUCCUCAUCCUCAGAUGUGUUGACAUUGUCAUCUCUUUUGAGAUUGUCCAACUGGGCCUUCCAACAGAGGAUUGAGCAUCA
B6: 25093797_25093917_641_ncRNA_ENSMUSG00000074282_ENSMUST00000137781|mouse|control|control (ssRNA)
RNA: GGGAGUUCUACAGUCCGACGAUCCUGAGCCAUCCCUCUAGCCCCAGAAAGAUUUUUAGUGUUAAAAAAUAAAUGUUCACCUAUCCACUACAUGUGUGGAGGUGAUUACAAUUAGAGAAGGCAUAAAACCACGGCAUCACACUGCAACAGAGGAUUGAGCAUCA
B7: chr9:95013113:95013114:-_ENSG00000196305_ENST00000443024|hu_hu|hu_hu_hu_mus_False|1_68 (ssRNA)
RNA: GGGAGUUCUACAGUCCGACGAUCCUCAGUCAGAAAGGGCGUGUAAGGGGCCAUCAGUCUGCACAGAGAAAGCAGAACACUGAACAGUGUCUCCAGAGCCAUGACACAGUCUUCCACCCCACUCUCACCCUUUAACCUUCUGCGCAACAGAGGAUUGAGCAUCA
B8: chr7:27827042:27827043:+_ENSG00000106052_ENST00000265393|hu_hu|motif|central (ssRNA)
RNA: GGGAGUUCUACAGUCCGACGAUCUUUGUUCCCAUCUAAAUUUUUUAAAGUCUGGACCUCUGACAUAAGCUUGGUAUUUUCGGUUUCUGUAUUCUUCAAAUGUACCUUAUAAAGUUCCUUUUCAUCCUUCUCUGUCUUCAACUGCAACAGAGGAUUGAGCAUCA
B9: chr1:230810825:230810826:+_ENSG00000135775_ENST00000366669|hu_hu|motif|central (ssRNA)
RNA: GGGAGUUCUACAGUCCGACGAUCUUUCUCAUGAAAUGCAUCGGGAUUCCCAGGAUUAAAAAGCGAGGGUAACUUUUCUUCGGAUCCUUGUACUAUUUGUGGCCAAACAGAAUUCACCAAAAAGUCAUAUCCAGGAACAGUAUUCAACAGAGGAUUGAGCAUCA
B10: chr11:4127340:4127341:+_ENSG00000167325_ENST00000300738|hu_mus|hu_hu_hu_mus_False|38_58 (ssRNA)
RNA: GGGAGUUCUACAGUCCGACGAUCGGCAUAGUCAGGGUGCUUCGUGGUCAAGGUCGCGGCUGUCUCAGCAGCCAGGGUAUCUAGUUCCACUGUGGUGACCCCACUGUAUAGGCCUUGGAUUACUUUCAUGGUGAUCUGAGCAGGCAACAGAGGAUUGAGCAUCA
B11: chr6:110421769:110421770:-_ENSG00000112290_ENST00000392587|hu_mus|motif|central (ssRNA)
RNA: GGGAGUUCUACAGUCCGACGAUCGCUUUCUUACUCCAGCCAGUCUACUUCAUCGAACUCCGAGUCAUCUUCCGAGUCGCGGUACUCCACAGCAAUGCGGCGAGACAGGAUGGUGGCCACGUCGUUUUCAAUCCGCUCGUGUUUCAACAGAGGAUUGAGCAUCA
B12: chr9:95013113:95013114:-_ENSG00000196305_ENST00000443024|hu_hu|hu_hu_hu_mus_False|78_78 (ssRNA)
RNA: B7 RNA with C63A, A75G, U138C, G141C, G143U
B13: chr12:39756943:39756944:-_ENSG00000139116_ENST00000544797|hu_mus|hu_hu_hu_mus_False|58_68 (ssRNA)
RNA: GGGAGUUCUACAGUCCGACGAUCGGUUUGGCUGUUACCCCCAAGGGAAUCCUGCAAGAGUCUUGUCAGCUUGGAAUCUCUAUAGGGGACAUGGGUGGCUCUCUUGCUCUUGUCCCCCAAGGCGCUGAUUACAUUCCCAAGAGCCAACAGAGGAUUGAGCAUCA
B14: chr7:149068622:149068623:-_ENSMUSG00000025139_ENSMUST00000001950|mus_hu|mus_mus_mus_hu_False|18_38 (ssRNA)
RNA: GGGAGUUCUACAGUCCGACGAUCGUGAGGCCUCUGAGUGUGGCUUGUGGUCUGUCCUGGGUUAGAGUUGUUAAUAUCACGGAACAUACCAUCUAGAGAGGUUCUGCCCCGCCUGACCAUCCACCCUCCAAUGGAGAAGAAAUCCAACAGAGGAUUGAGCAUCA
B15: chr4:129324761:129324762:-_ENSMUSG00000003731_ENSMUST00000102590|mus_hu|FALSE|FALSE (ssRNA)
RNA: GGGAGUUCUACAGUCCGACGAUCCAAGCGUACAAGAUUAAUAUUCUGUCAGAGCAAGAACACUUUGUUUUGGAUUUCUCCCUUCCCCUCCCACCUCCCACCUCUGGAAUAUACCGUCUGCUCAAGUACCCAAGAUAAGAGUUACAACAGAGGAUUGAGCAUCA
B16: 52911994_52912114_3718_CDS_ENSG00000134744_ENST00000257177|human|control|control (ssRNA)
RNA: GGGAGUUCUACAGUCCGACGAUCCUGCCGAAUGCUAAUUACAUAUUCCUUGAAAUCAAACUCUUCAGUAUAGAAACGAAGCAGUCCCAGCCAAAGCUCCCCUAAUGAUUCUGUGUUCUUUCCAAGUGAAGGUAAACGCUUUUUCAACAGAGGAUUGAGCAUCA
B17: chr11:86516163:86516164:-_ENSMUSG00000047126_ENSMUST00000103186|mus_hu|FALSE|FALSE (ssRNA)
RNA: GGGAGUUCUACAGUCCGACGAUCAAGGCUGUCUUUCUUGCACAGCUCUACACUCUGUUUCCAGCGAUUGUUGCCUUUGAAGAGAUAAGCAGCAAUUCUCCUGAACUCAAUGAGUUCAUGUUUUUCCAAACGCUGAGCAAGCGACAACAGAGGAUUGAGCAUCA
B18: chr1:44133529:44133530:+_ENSG00000066135_ENST00000372396|hu_hu|FALSE|FALSE (ssRNA)
RNA: GGGAGUUCUACAGUCCGACGAUCAAACUCAGCUGCUUCUGGCGUGGGCAGAGUAUGGUCAAUAACUGUGUUGUCCUUCCCAGCUUUCCAAAGUUUGUACCUUUCUGGCUGGAACUUUCUCACAAACACAUCCAUGGAGAUCUUCAACAGAGGAUUGAGCAUCA
B19: chr2:30381511:30381512:+_ENSG00000119801_ENST00000261353|hu_hu|motif|central (ssRNA)
RNA: GGGAGUUCUACAGUCCGACGAUCCAUGUGGCGGCCAGUGAGCAUGACCCGAUCUUGAACUUCACUGUACUGCAGGUUAACGGCCUUGUUAAAAAGAAAUGCUCUGCCAGUGGCGCCUGUGAAACGAGUGGAGAUGAGUUCUGACAACAGAGGAUUGAGCAUCA
B20: chr7:36506639:36506640:-_ENSMUSG00000043671_ENSMUST00000051377|mus_mus|FALSE|FALSE (ssRNA)
RNA: GGGAGUUCUACAGUCCGACGAUCGAACAGCACCAGUGCCUGCAGCAGCAUCAUGAACUGGUUAAAUUGCCAUGUCAGGCUAAAGAGAAAAGUUGAUACGAAAAUGGCAAGAAGUGUCAGCCUUUCAGAAAGAGGCUGUAAAUUCAACAGAGGAUUGAGCAUCA
B21: 33597688_33597808_1080_3pUTR_ENSMUSG00000042834_ENSMUST00000171533|mouse|control|control (ssRNA)
RNA: GGGAGUUCUACAGUCCGACGAUCUCUAGAGAAGAACAUUCCAGGAAACAAAGUACCGACACCUUCUUAGAACAUGGAAAUAAAAACAACUCCACCAGAGCUACCUCGCCAAGGAGCAUGUUGAAAGUCCAAAAUAGCACCAUUCAACAGAGGAUUGAGCAUCA
B22: 53565299_53565799_12336_CDS_ENSG00000086758_ENST00000262854|human|control|control (ssRNA)
RNA: GGGAGUUCUACAGUCCGACGAUCGCGCUUGACAUCAAAGUCGAGGACACGAAUGUAGUCUACCAGGACAGCAAAAGGCCCAUCAGCAAGGUGGGUCGUGGACUGCCGUAGGAUCUGGUUUAACACAGUGCGGUGAGUCUCUGCCAACAGAGGAUUGAGCAUCA

Changes are numbered by the printed parent chain. Some of the results follow.

The target of this experiment is T1, UNK ZnF1-3 (human, UniProt Q9C0B0 31-174).
T1 sequence: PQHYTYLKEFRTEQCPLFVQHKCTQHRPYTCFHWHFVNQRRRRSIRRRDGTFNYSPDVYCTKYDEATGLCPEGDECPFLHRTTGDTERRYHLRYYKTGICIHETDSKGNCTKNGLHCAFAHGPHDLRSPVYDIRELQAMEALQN
Put plainly: nsRBNS (natural sequence RNA bind-n-seq); RBNS binding buffer (assumed for nsRBNS): 25 mM Tris pH 7.5, 150 mM KCl, 3 mM MgCl2, 0.01% Triton X-100, 500 ug/ml BSA, 20 U/ml SUPERase-In, 4 C; UNK is unkempt and MSI1 is Musashi-1; names of the RNAs are library labels; protein concentration not given here; high values mean tight binding.
For the molecule B1, the binding signal worked out at 1.66 enrichment R.

Consider B2, for which the binding signal came to 0.838 enrichment R.

With B3, the binding signal came out at 1.47 enrichment R.

B4: the binding signal is 2.29 enrichment R.

B5 gave a binding signal of 0.455 enrichment R.

The molecule B6 gave a binding signal of 2.14 enrichment R.

For B7, the binding signal was found to be 1.11 enrichment R.

On to B8, for which the binding signal is 0.538 enrichment R.

B9: the binding signal was found to be 1.08 enrichment R.

For B10, the binding signal amounted to 0.837 enrichment R.

Molecule B11 showed a binding signal of 0.613 enrichment R.

With B12, the binding signal is 1.44 enrichment R.

The molecule B13 showed a binding signal of 0.708 enrichment R.

Molecule B14 registered a binding signal of 0.75 enrichment R.

In turn, B15 yielded a binding signal of 0.879 enrichment R.

As for B16, the binding signal was 1.12 enrichment R.

Turning to B17, the binding signal came out at 0.578 enrichment R.

B18 registered a binding signal of 0.628 enrichment R.

The molecule B19 had a binding signal of 1.1 enrichment R.

B20 gave a binding signal of 1.75 enrichment R.

For the molecule B21, the binding signal was found to be 2.04 enrichment R.

In turn, B22 returned a binding signal of 0.651 enrichment R.

The values above are taken from article PMC12136788.
